Measured values taken from patent publication US9833497B2, “Human originated EGF domain proteins and use of the same” (CHENGDU SOURCEBIO LIMITED-LIABILITY COMPANY, priority 2013, dated 2017).

How the values were obtained:
Format in all cases: cell-based
Klebsiella pneumonia = assay: MIC against Gram-negative bacteria: Klebsiella pneumonia; conditions: for MIC K. pneumonia: 96-well plate, 37° C., 10 h; for MIC K. pneumonia / MIC (μg/mL) K. pneumonia: 5×10^5 CFU/mL; for MIC (μg/mL) K. pneumonia / MIC: 10 h cultivation at 37° C., K. pneumonia
Experimental: (§1) 1. Gram-negative bacteria, such as E. coli BL21, Pseudomonas aeruginosa, Klebsiella pneumonia, Enterobacter cloacae, Aeromonas hydrophila, Citrobacter diversus, Moraxella catarrhalis, Proteus mirabilis, Proteus vulgaris, Serratia marcescens, etc were streaked on solid LB medium and cultured respectively. Then, typical clones were picked, inoculated into common liquid LB medium respectively, and cultured at 37° C. with shaking at 185 rpm until the McFarland specific turbidity was 0.5. The bacterial culture of each of Gram-negative bacteria was centrifuged at 4000×g for 3 min, the supernatant was discarded, and the thalli were resuspended with fresh LB medium.
(§2) 2. The above-mentioned bacterial suspensions were diluted and inoculated into 96-well plates with the final concentration of the bacterial suspension being 5×10^5 CFU/mL per well.
(§3) 3. Each of the purified human-originated EGF domain proteins (PRT1 to PRT1498 in Table 1) was added to each of the above wells and subjected to two-fold serial dilution in concentration. Three parallel wells were set up for each concentration in the gradient.
(§4) 4. The above-mentioned 96-well plates were placed and cultured at 37° C. in shaking incubator shaking at 175 rpm. […] The minimal inhibitory concentration MIC is defined as the lowest concentration of the recombinant protein at which there is no growth of the bacteria.

Moraxella catarrhalis = assay: MIC against Gram-negative bacteria: Moraxella catarrhalis; conditions: for MIC M. catarrhalis: 96-well plate, 37° C., 10 h; for MIC M. catarrhalis / MIC (μg/mL) M. catarrhalis: 5×10^5 CFU/mL; for MIC (μg/mL) M. catarrhalis / MIC: 10 h cultivation at 37° C., M. catarrhalis
Experimental: as §1, §2, §3, §4

Proteus vulgaris = assay: MIC against Gram-negative bacteria: Proteus vulgaris; conditions: for MIC P. vulgaris: 96-well plate, 37° C., 10 h; for MIC P. vulgaris / MIC (μg/mL) P. vulgaris: 5×10^5 CFU/mL; for MIC (μg/mL) P. vulgaris / MIC: 10 h cultivation at 37° C., P. vulgaris
Experimental: as §1, §2, §3, §4

E. coli BL21 = assay: MIC against Gram-negative bacteria: E. coli BL21; conditions: for MIC E. coli BL21: 96-well plate, 37° C., 10 h; for MIC E. coli BL21 / MIC (μg/mL) E. coli BL21: 5×10^5 CFU/mL; for MIC (μg/mL) E. coli BL21 / MIC: 10 h cultivation at 37° C., E. coli BL21
Experimental: as §1, §2, §3, §4

Proteus mirabilis = assay: MIC against Gram-negative bacteria: Proteus mirabilis; conditions: for MIC P. mirabilis: 96-well plate, 37° C., 10 h; for MIC P. mirabilis / MIC (μg/mL) P. mirabilis: 5×10^5 CFU/mL; for MIC (μg/mL) P. mirabilis / MIC: 10 h cultivation at 37° C., P. mirabilis
Experimental: as §1, §2, §3, §4

Enterobacter cloacae = assay: MIC against Gram-negative bacteria: Enterobacter cloacae; conditions: for MIC E. cloacae: 96-well plate, 37° C., 10 h; for MIC E. cloacae / MIC (μg/mL) E. cloacae: 5×10^5 CFU/mL; for MIC (μg/mL) E. cloacae / MIC: 10 h cultivation at 37° C., E. cloacae
Experimental: as §1, §2, §3, §4

Aeromonas hydrophila = assay: MIC against Gram-negative bacteria: Aeromonas hydrophila; conditions: for MIC A. hydrophila: 96-well plate, 37° C., 10 h; for MIC A. hydrophila / MIC (μg/mL) A. hydrophila: 5×10^5 CFU/mL; for MIC (μg/mL) A. hydrophila / MIC: 10 h cultivation at 37° C., A. hydrophila
Experimental: as §1, §2, §3, §4

Serratia marcescens = assay: MIC against Gram-negative bacteria: Serratia marcescens; conditions: for MIC S. marcescens: 96-well plate, 37° C., 10 h; for MIC S. marcescens / MIC (μg/mL) S. marcescens: 5×10^5 CFU/mL; for MIC (μg/mL) S. marcescens / MIC: 10 h cultivation at 37° C., S. marcescens
Experimental: as §1, §2, §3, §4

Pseudomonas aeruginosa = assay: MIC against Gram-negative bacteria: Pseudomonas aeruginosa; conditions: for MIC P. aeruginosa: 96-well plate, 37° C., 10 h; for MIC P. aeruginosa / MIC (μg/mL) P. aeruginosa: 5×10^5 CFU/mL; for MIC (μg/mL) P. aeruginosa / MIC: 10 h cultivation at 37° C., P. aeruginosa
Experimental: as §1, §2, §3, §4

Citrobacter diversus = assay: MIC against Gram-negative bacteria: Citrobacter diversus; conditions: for MIC C. diversus: 96-well plate, 37° C., 10 h; for MIC C. diversus / MIC (μg/mL) C. diversus: 5×10^5 CFU/mL; for MIC (μg/mL) C. diversus / MIC: 10 h cultivation at 37° C., C. diversus
Experimental: as §1, §2, §3, §4

E. coli DH5α = assay: Antibacterial activity: MIC and growth curve against E. coli DH5α in 96-well plate; conditions: minimal inhibitory concentration against E. coli DH5α, 5×10^5 CFU/mL, 37° C., judged after 8 h
Experimental: 1. E. coli DH5α was exemplified. E. coli DH5α was streaked and cultured on LB solid medium. Then, a typical clone was picked and inoculated into common LB liquid medium, cultured at 37° C. with shaking at 185 rpm until the logarithmic growth phase was reached (OD600 of about 0.5). The bacterial culture was centrifuged at 4000×g for 3 min, the supernatant was discarded, and the thalli were resuspended with fresh LB medium.
2. The above-mentioned bacterial suspension was diluted and inoculated into a 96-well plate with the total volume of 100 μL per well and a bacterial count of 5×10^5 CFU/mL.
3. The recombinant protein hF VII-EGF1 was added to the above-mentioned wells with the final protein concentration in the well of the highest protein concentration being 50 μg/mL. Basing on this final concentration, a two-fold serial dilution was performed till a protein concentration gradient consisting of 50, 25, and 12.5 μg/mL was set up. Three parallel wells were set up for each concentration in the gradient.
as §4, with “plate was” for “plates were”, “rpm. Samples were taken every 30 min, the absorbance values were determined at 600 nm wavelength under a ultra violet spectrophotometer, and an inhibition curve was plotted.” for “rpm.”
According to the experimental procedures in Example 14, the minimal inhibitory concentrations (MIC, μg/mL) of the other human-originated EGF domain proteins (PRT2 to PRT1498 in Table 1) for E. coli DH5α were determined.

Substance	MIC (E. coli DH5α) [µg/mL]	MIC (μg/mL) K. pneumonia (Klebsiella pneumonia) [µg/mL]	MIC (μg/mL) M. catarrhalis (Moraxella catarrhalis) [µg/mL]	MIC (μg/mL) P. vulgaris (Proteus vulgaris) [µg/mL]	MIC (μg/mL) E. coli BL21 (E. coli BL21) [µg/mL]	MIC (μg/mL) P. mirabilis (Proteus mirabilis) [µg/mL]	MIC (μg/mL) E. cloacae (Enterobacter cloacae) [µg/mL]	MIC (μg/mL) A. hydrophila (Aeromonas hydrophila) [µg/mL]	MIC (μg/mL) S. marcescens (Serratia marcescens) [µg/mL]	MIC (μg/mL) P. aeruginosa (Pseudomonas aeruginosa) [µg/mL]	MIC (μg/mL) C. diversus (Citrobacter diversus) [µg/mL]	other results
PRT667 (DINECEQPGVCSGGQCTNTEGSYHCECDQGYIMVRKGHCQ; listed as Homo sapiens)	50	–	–	–	–	–	–	–	–	–	–	MIC K. pneumonia (Klebsiella pneumonia): 50 µg/mL; MIC M. catarrhalis (Moraxella catarrhalis): 50 µg/mL; MIC P. vulgaris (Proteus vulgaris): 12.5 µg/mL; MIC E. coli BL21 (E. coli BL21): 25 µg/mL; MIC P. mirabilis (Proteus mirabilis): 25 µg/mL; MIC E. cloacae (Enterobacter cloacae): 12.5 µg/mL; MIC A. hydrophila (Aeromonas hydrophila): 50 µg/mL; MIC S. marcescens (Serratia marcescens): 50 µg/mL; MIC P. aeruginosa (Pseudomonas aeruginosa): 12.5 µg/mL; MIC C. diversus (Citrobacter diversus): 12.5 µg/mL
PRT687 (DVDECRNRSFCGAHAVCQNLPGSFQCLCDQGYEGARDGRHCV; listed as Homo sapiens)	50	–	–	–	–	–	–	–	–	–	–	MIC K. pneumonia (Klebsiella pneumonia): 12.5 µg/mL; MIC M. catarrhalis (Moraxella catarrhalis): 25 µg/mL; MIC P. vulgaris (Proteus vulgaris): 25 µg/mL; MIC E. coli BL21 (E. coli BL21): 25 µg/mL; MIC P. mirabilis (Proteus mirabilis): 12.5 µg/mL; MIC E. cloacae (Enterobacter cloacae): 25 µg/mL; MIC A. hydrophila (Aeromonas hydrophila): 25 µg/mL; MIC S. marcescens (Serratia marcescens): 50 µg/mL; MIC P. aeruginosa (Pseudomonas aeruginosa): 50 µg/mL; MIC C. diversus (Citrobacter diversus): 50 µg/mL
PRT810 (LSAECSASLCFHGGRCVPGSAQPCHCPPGFQGPRCQ; listed as Homo sapiens)	25	12.5	25	50	50	50	50	25	25	25	50	–
PRT814 (QEICPACQHAARCDPETGACLCLPGFVGSRCQ; listed as Homo sapiens)	25	12.5	25	12.5	25	12.5	12.5	25	12.5	50	12.5	–
PRT852 (SWGQCQPVCQPRCKHGECIGPNKCKCHPGYAGKTCN; listed as Homo sapiens)	12.5	25	12.5	12.5	25	50	50	12.5	50	12.5	50	–
PRT860 (CKCNGHASRCLLDTQGHLICDCRHGTEGPDCGRCKPFYCDRPWQRATARESHAC; listed as Homo sapiens)	25	50	50	50	12.5	12.5	12.5	50	100	25	12.5	–
PRT862 (CDCHPVGAAGKTCNQTTGQCPCKDGVTGLTCNRCAPGFQQSRSPVAPC; listed as Homo sapiens)	12.5	50	12.5	12.5	25	50	12.5	50	25	12.5	25	–
PRT868 (CQCHPIGATGGTCNQTSGQCTCKLGVTGLTCNRCGPGYQQSRSPRMPCQR; listed as Homo sapiens)	12.5	25	25	12.5	50	50	50	25	12.5	12.5	12.5	–
PRT888 (DVDECSLGANPCEHAGKCINTLGSFECQCLQGYTGPRCE; listed as Homo sapiens)	12.5	50	12.5	25	50	25	25	12.5	12.5	12.5	25	–
PRT892 (DIDECDPDPCHYGSCKDGVATFTCLCRPGYTGHHCE; listed as Homo sapiens)	25	25	12.5	25	12.5	50	50	12.5	25	25	50	–
PRT911 (NVDDCNPPVDPVSRSPKCFNNGTCVDQVGGYSCTCPPGFVGERCE; listed as Homo sapiens)	12.5	–	–	–	–	–	–	–	–	–	–	MIC (Klebsiella pneumonia): 50 µg/mL; MIC (Moraxella catarrhalis): 12.5 µg/mL; MIC (Proteus vulgaris): 12.5 µg/mL; MIC (E. coli BL21): 12.5 µg/mL; MIC (Proteus mirabilis): 50 µg/mL; MIC (Enterobacter cloacae): 25 µg/mL; MIC (Aeromonas hydrophila): 12.5 µg/mL; MIC (Serratia marcescens): 50 µg/mL; MIC (Pseudomonas aeruginosa): 25 µg/mL; MIC (Citrobacter diversus): 50 µg/mL
PRT931 (DIDECASNPCRKGATCINGVNGFRCICPEGPHHPSCY; listed as Homo sapiens)	12.5	–	–	–	–	–	–	–	–	–	–	MIC (Klebsiella pneumonia): 25 µg/mL; MIC (Moraxella catarrhalis): 12.5 µg/mL; MIC (Proteus vulgaris): 25 µg/mL; MIC (E. coli BL21): 25 µg/mL; MIC (Proteus mirabilis): 50 µg/mL; MIC (Enterobacter cloacae): 12.5 µg/mL; MIC (Aeromonas hydrophila): 25 µg/mL; MIC (Serratia marcescens): 12.5 µg/mL; MIC (Pseudomonas aeruginosa): 50 µg/mL; MIC (Citrobacter diversus): 50 µg/mL
PRT940 (NINECTESSCFNGGTCVDGINSFSCLCPVGFTGSFCL; listed as Homo sapiens)	12.5	–	–	–	–	–	–	–	–	–	–	MIC (Klebsiella pneumonia): 12.5 µg/mL; MIC (Moraxella catarrhalis): 50 µg/mL; MIC (Proteus vulgaris): 50 µg/mL; MIC (E. coli BL21): 12.5 µg/mL; MIC (Proteus mirabilis): 12.5 µg/mL; MIC (Enterobacter cloacae): 12.5 µg/mL; MIC (Aeromonas hydrophila): 50 µg/mL; MIC (Serratia marcescens): 12.5 µg/mL; MIC (Pseudomonas aeruginosa): 25 µg/mL; MIC (Citrobacter diversus): 12.5 µg/mL
